These are yes or no findings as the source states them, for the method shown. Binding seen in cells or lysates may run through a third protein. Some entries that bind do so weakly or less than the wild type. Sequences can lack the tags named with a protein.
B1: Hrr25 S181A/S191A/S198A (enzyme, UniProt P29295 1-494)
chain: MDLRVGRKFRIGRKIGSGSFGDIYHGTNLISGEEVAIKLESIRSRHPQLDYESRVYRYLSGGVGIPFIRWFGREGEYNAMVIDLLGPSLEDLFNYCHRRFSFKTVIMLALQMFCRIQYIHGRSFIHRDIKPDNFLMGVGRRGSTVHVIDFGLSKKYRDFNTHRHIPYRENKSLTGTARYAAVNTHLGIEQARRDDLEALGYVLIYFCKGSLPWQGLKATTKKQKYDRIMEKKLNVSVETLCSGLPLEFQEYMAYCKNLKFDEKPDYLFLARLFKDLSIKLEYHNDHLFDWTMLRYTKAMVEKQRDLLIEKGDLNANSNAASASNSTDNKSETFNKIKLLAMKKFPTHFHYYKNEDKHNPSPEEIKQQTILNNNAASSLPEELLNALDKGMENLRQQQPQQQVQSSQPQPQPQQLQQQPNGQRPNYYPEPLLQQQQRDSQEQQQQVPMATTRATQYPPQINSNNFNTNQASVPPQMRSNPQQPPQDKPAGQSIWL
B2: Hrr25 T27A/S31A (enzyme, UniProt P29295 1-494)
chain: MDLRVGRKFRIGRKIGSGSFGDIYHGANLIAGEEVAIKLESIRSRHPQLDYESRVYRYLSGGVGIPFIRWFGREGEYNAMVIDLLGPSLEDLFNYCHRRFSFKTVIMLALQMFCRIQYIHGRSFIHRDIKPDNFLMGVGRRGSTVHVIDFGLSKKYRDFNTHRHIPYRENKSLTGTARYASVNTHLGIEQSRRDDLESLGYVLIYFCKGSLPWQGLKATTKKQKYDRIMEKKLNVSVETLCSGLPLEFQEYMAYCKNLKFDEKPDYLFLARLFKDLSIKLEYHNDHLFDWTMLRYTKAMVEKQRDLLIEKGDLNANSNAASASNSTDNKSETFNKIKLLAMKKFPTHFHYYKNEDKHNPSPEEIKQQTILNNNAASSLPEELLNALDKGMENLRQQQPQQQVQSSQPQPQPQQLQQQPNGQRPNYYPEPLLQQQQRDSQEQQQQVPMATTRATQYPPQINSNNFNTNQASVPPQMRSNPQQPPQDKPAGQSIWL
B3: Hrr25 S143A/T144A/S181A/S191A/S198A (enzyme, UniProt P29295 1-494)
chain: MDLRVGRKFRIGRKIGSGSFGDIYHGTNLISGEEVAIKLESIRSRHPQLDYESRVYRYLSGGVGIPFIRWFGREGEYNAMVIDLLGPSLEDLFNYCHRRFSFKTVIMLALQMFCRIQYIHGRSFIHRDIKPDNFLMGVGRRGAAVHVIDFGLSKKYRDFNTHRHIPYRENKSLTGTARYAAVNTHLGIEQARRDDLEALGYVLIYFCKGSLPWQGLKATTKKQKYDRIMEKKLNVSVETLCSGLPLEFQEYMAYCKNLKFDEKPDYLFLARLFKDLSIKLEYHNDHLFDWTMLRYTKAMVEKQRDLLIEKGDLNANSNAASASNSTDNKSETFNKIKLLAMKKFPTHFHYYKNEDKHNPSPEEIKQQTILNNNAASSLPEELLNALDKGMENLRQQQPQQQVQSSQPQPQPQQLQQQPNGQRPNYYPEPLLQQQQRDSQEQQQQVPMATTRATQYPPQINSNNFNTNQASVPPQMRSNPQQPPQDKPAGQSIWL

Target: T1, Myc-tagged Elp1 (Saccharomyces cerevisiae (budding yeast)) (UniProt Q06706)
T1 sequence: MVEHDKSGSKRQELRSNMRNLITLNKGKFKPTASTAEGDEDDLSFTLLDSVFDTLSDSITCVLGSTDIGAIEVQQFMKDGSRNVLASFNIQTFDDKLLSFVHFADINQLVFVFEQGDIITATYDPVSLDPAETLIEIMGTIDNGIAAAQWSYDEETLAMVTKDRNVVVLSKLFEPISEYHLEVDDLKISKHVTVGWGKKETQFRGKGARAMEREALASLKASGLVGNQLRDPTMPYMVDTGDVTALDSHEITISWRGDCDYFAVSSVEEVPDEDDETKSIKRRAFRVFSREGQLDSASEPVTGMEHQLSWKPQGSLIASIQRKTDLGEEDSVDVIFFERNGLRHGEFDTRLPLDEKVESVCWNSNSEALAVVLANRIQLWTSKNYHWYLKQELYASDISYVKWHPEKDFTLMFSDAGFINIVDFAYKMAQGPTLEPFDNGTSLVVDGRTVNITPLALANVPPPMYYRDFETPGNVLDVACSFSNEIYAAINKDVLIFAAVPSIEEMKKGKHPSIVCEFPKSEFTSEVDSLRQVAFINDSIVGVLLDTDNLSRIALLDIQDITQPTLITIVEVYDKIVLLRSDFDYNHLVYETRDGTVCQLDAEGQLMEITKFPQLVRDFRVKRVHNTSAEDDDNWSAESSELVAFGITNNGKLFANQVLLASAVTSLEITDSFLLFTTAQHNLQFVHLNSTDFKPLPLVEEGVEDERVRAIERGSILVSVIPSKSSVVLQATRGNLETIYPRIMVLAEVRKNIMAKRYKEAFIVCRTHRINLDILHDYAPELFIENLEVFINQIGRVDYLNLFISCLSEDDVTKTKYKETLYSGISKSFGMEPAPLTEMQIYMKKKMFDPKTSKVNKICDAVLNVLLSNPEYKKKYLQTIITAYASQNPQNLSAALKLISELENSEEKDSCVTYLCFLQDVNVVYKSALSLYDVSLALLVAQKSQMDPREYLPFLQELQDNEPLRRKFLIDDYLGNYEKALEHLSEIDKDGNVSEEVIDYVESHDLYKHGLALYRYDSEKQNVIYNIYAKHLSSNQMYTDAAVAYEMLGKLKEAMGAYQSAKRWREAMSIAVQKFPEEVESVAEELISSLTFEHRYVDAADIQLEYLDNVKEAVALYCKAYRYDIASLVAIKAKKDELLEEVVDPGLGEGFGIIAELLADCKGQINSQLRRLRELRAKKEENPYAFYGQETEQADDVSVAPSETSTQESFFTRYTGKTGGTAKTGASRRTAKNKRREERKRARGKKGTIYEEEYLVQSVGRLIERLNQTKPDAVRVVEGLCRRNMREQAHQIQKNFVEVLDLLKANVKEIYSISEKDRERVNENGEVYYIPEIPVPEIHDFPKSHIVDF
Experiment: co-IP; IP of c-Myc-tagged Elp1 from yeast total protein extract (6.5 mg) with anti-c-Myc 9E10 on magnetic beads, 16 h at 4°C, IPP100 buffer (10 mM Tris-HCl pH 8, 100 mM NaCl, 0.1% NP-40, 1 mM DTT) with protease and phosphatase inhibitors; WB with anti-Hrr25

Binder	binding
B1	binds
B2	no binding
B3	no binding

Source: paper PMC12421383, “Autophosphorylation of conserved yeast and human casein kinase 1 isozymes regulates Elongator-dependent tRNA modifications” (Nucleic Acids Research, 2025)
